According to PubChem BioAssay AID938 (National Center for Advancing Translational Sciences (NCATS), 2007):
About 1,800 (2.5%) of roughly 73,000 compounds were called active. Roughly 13% stayed inconclusive and do not appear here. Calls come from the whole dose curve; as a rule, active = well fitted activation curve with a large enough effect; inconclusive = small, poorly fitted or top-dose-only effect; inactive = no such curve, though single readings can be large or run the other way. This is a selection; strong and weak results do not stand in their true shares.

Assay: qHTS Assay for Agonists of the Thyroid Stimulating Hormone Receptor: Activators of Intracellular cAMP Concentrations in Parental HEK 293; note: nearly all actives have a fitted effect of over 55% in size; for activation: % of control where 0% means no effect
Settings: parental HEK293 CNG cAMP sensor, membrane potential fluorescence; series mostly up to 57.1 µM; activation: at the top concentration
Method in brief: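 Counterscreen for endogenous-receptor signalling: CNG-channel HEK 293 cells report cAMP rise by membrane depolarization. After 60 min dye equilibration with 100 uM RO 20-1724, compounds incubated 30 min before bottom-read fluorescence at 590 nm.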
Potency is the fitted concentration of half-maximal effect.

Structure (SMILES)	activation	Potency
S=C(S)O[C@@H]1C[C@@H]2C[C@H]1[C@@H]1CCC[C@H]21	inactive: 4.96%	–
COC(=O)c1ccc(OC)c(CSc2nnc(COc3ccccc3)o2)c1	–	active: 12.6 µM
OC(CN1CCOCC1)Cn1c(-c2cccc(Cl)c2)nc2ccccc21 (stereo not given)	inactive: -55.8%	–
COc1ccccc1N1CCN(C/C(O)=C(\C#N)c2nc(-c3ccccc3)cs2)CC1	inactive: -33.1%	–
CCc1ccc(C(c2ccc(CC)cc2)C(Cl)Cl)cc1	inactive: 13.6%	–
COC(=O)c1[nH]c2c(c1C)C(=O)CCC2	inactive: -49.1%	–
CN(C)CC/C=C1\c2ccccc2COc2ccccc21	–	inactive
COC(=O)[C@@]1(Cc2ccccc2)[C@H]2c3cc(C(=O)N(C)C)n(CCF)c3C[C@H]2CN1C(=O)c1ccccc1	–	active: 25.1 µM
COCCn1c(=O)c(-c2cccc(C#N)c2)nc2cnc(Nc3ccccc3)nc21	–	active: 0.251 µM
Cc1cc(C)nc(Sc2c(C)n[nH]c2C)n1	inactive: -2.28%	–
COc1cc(NC(=O)c2ccco2)c(OC)cc1NC(=O)CSc1ncc(-c2ccc(F)cc2)[nH]1	inactive: -44.8%	–
CC1CN(CCc2ccccc2)c2nc3c(c(=O)[nH]c(=O)n3C)n2C1 (stereo not given)	inactive: -31.1%	–
N=c1c(C(=O)NCc2ccco2)cc2c(=O)n3ccccc3nc2n1Cc1ccccc1	inactive: -129%	–
COC(=O)CS	inactive: -21.2%	–
Cc1c(C(=O)Nc2ccc(N3CCOCC3)cc2)oc2ccccc12	inactive: -36%	–
COc1ccccc1Nc1nc(NCCO)c2ccccc2n1	inactive: -51.1%	–
O=c1c2[nH]c3ccccc3c2ncn1C1CCCCC1	inactive: 1.97%	–
COCCNC(=O)CN(C(=O)Cn1nnc2ccccc21)c1ccc(F)c(Cl)c1	inactive: 2.46%	–
COc1ccccc1CNc1ncnc2c1nnn2Cc1ccccc1	–	active: 12.6 µM
COc1ccccc1Nc1nc(N)nc(CSCCO)n1	inactive: -32%	–
CCCCOc1ccc(S(=O)(=O)n2c(C)nc3ccccc32)cc1	–	active: 3.16 µM
c1ccc(CCNc2c3c(nc4ncnn24)CCC3)cc1	–	active: 6.31 µM
C[C@@H](C(=O)NCC1CC1)[C@@H]1C[C@@]1(C)[C@@H](NC(=O)OCc1ccccc1)c1ccccc1	inactive: 20.9%	–
O=C(NC1CCCCC1)C(c1ccccc1)N(Cc1ccco1)C(=O)Cn1cnc2ccccc21 (stereo not given)	–	active: 20 µM
CCC1Oc2ccc(C)cc2N(CC(=O)NCc2cccc(OC)c2)C1=O (stereo not given)	–	active: 12.6 µM

Structure (SMILES)	activation	Potency
CC(C)C(C)C	inactive: -14.9%	–
N=C1C=CC(=C(c2ccc(N)cc2)c2ccc(N)cc2)C=C1	–	inactive
CCOC(=O)CCC(NC(=O)c1ccc(NCN2C(=O)c3ccccc3C2=O)cc1)C(=O)OCC (stereo not given)	–	active: 0.794 µM
CC1=C(SCCC#N)S/C(=C2\SC(C)=C(SCCC#N)S2)S1	inactive: -48.4%	–
Cc1oc(-c2ccc(F)cc2)cc1-c1nn2c(-c3ccoc3C)nnc2s1	–	active: 15.8 µM
O=C1OC2(c3cc(Br)c(O)c(Br)c3Oc3c2cc(Br)c(O)c3Br)c2c(Cl)c(Cl)c(Cl)c(Cl)c21	–	active: 15.8 µM
O=C(O)[C@@H]1[C@@H]2C[C@H]3c4[nH]c5ccccc5c4CCN3C[C@@H]2CC[C@@H]1O	inactive: 1.56%	–
COc1ccc2[nH]c(I)c(CCNC(C)=O)c2c1	inactive: -2.06%	–
c1cnc2c(c1)ccc1cccnc12	–	inactive
CCOc1ccc(Br)cc1/C=N/O	–	active: 3.98 µM
CCOC(=O)c1cc(=O)n2[nH]c(-c3ccc(C)cc3)cc2n1	inactive: -33.1%	–
COc1ccc(-c2oc3ncn(CCN4CCOCC4)c(=N)c3c2-c2ccc(OC)cc2)cc1	inactive: -32.9%	–
C=C1CC[C@@H](O)C/C1=C/C=C1\CCC[C@]2(C)[C@@H]1CC[C@H]2[C@@H](C)/C=C\[C@@H](C)C(C)C	inactive: 2.69%	–
COC(=O)[C@@]1(Cc2ccc(F)cc2)[C@H]2c3cc(C(=O)N(C)C)n(Cc4ccsc4Br)c3C[C@H]2CN1C(=O)c1ccccc1	–	active: 3.98 µM
OC[C@H]1O[C@@H]2O[C@H]3[C@H](O)[C@@H](O)[C@@H](O[C@H]4[C@H](O)[C@@H](O)[C@@H](O[C@H]5[C@H](O)[C@@H](O)[C@@H](O[C@H]6[C@H](O)[C@@H](O)[C@@H](O[C@H]7[C@H](O)[C@@H](O)[C@@H](O[C@H]8[C@H](O)[C@@H](O)[C@@H](O[C@H]1[C@H](O)[C@H]2O)O[C@@H]8CO)O[C@@H]7CO)O[C@@H]6CO)O[C@@H]5CO)O[C@@H]4CO)O[C@@H]3CO	inactive: -4.77%	–
COc1ccccc1N1CCN(C(c2cccs2)c2nnnn2C2CCCC2)CC1 (stereo not given)	–	active: 12.6 µM
CCCCCCOc1cccc(N)c1	inactive: -32.8%	–
O=C(c1ccc(Br)s1)N1CCN(Cc2ccc3c(c2)OCO3)CC1	inactive: 64%	–
CN1CCC(=C2c3ccccc3CC(=O)c3sccc32)CC1	–	inactive
COC(=O)c1ccccc1O	inactive: -5.88%	–
COc1ccc2[nH]c3ccc(OC)cc3c2c1	inactive: -53.2%	–
Nc1ccccc1O	inactive: -40.3%	–
CCOCCCn1c(=N)c(C(=O)NCc2ccc3c(c2)OCO3)cc2c(=O)n3ccccc3nc21	inactive: -122%	–
Cc1c(N(C)C)nc2ccccc2c1N	inactive: -41.5%	–
CCOC(=O)c1ccc(NC(=O)CSc2nc3c(c(=O)n2C)SC(C)C3)cc1 (stereo not given)	–	active: 20 µM
